{"source": "PubChem BioAssay AID720536", "about": "(National Center for Advancing Translational Sciences (NCATS), 2013)", "note": "Among all 1,600 compounds or so, about 650 (41%) were called active. So high a share suggests a set chosen from earlier hits. The shares of active, inactive and inconclusive entries below differ from those in the screen. Calls come from the whole dose curve; as a rule, active = well fitted inhibition curve with a large enough effect; inconclusive = small, poorly fitted or top-dose-only effect; inactive = no such curve, though single readings can be large or run the other way. Potencies of inconclusive entries are left out as doubtful fits. Potency is the fitted concentration of half-maximal effect; tags give direction and shape of the fitted curve."}
{"experiment": "qHTS for Inhibitors of TGF-b: CCL64 Cells Orthogonal Assay for Cherry Picks; note: nearly all actives have a fitted effect of over 65% in size;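 for activity, negative = inhibition: 0% = stimulated DMSO wells and full inhibition = unstimulated wells without TGF-beta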", "settings": "CCL64 CAGA-GFP reporter, TGF-b stimulated, GFP fluorescence, 18 h; activity, negative = inhibition: at 46.1 µM (top of the series)", "summary_of_the_method": "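CCL64 cells carrying a CAGA-GFP reporter (1000/well, DMEM with 1% FBS) were pre-incubated 2 h at 37 degrees C, given compound, then stimulated with 500 pg/mL TGF-beta for 18 h. Per-cell GFP fluorescence was summed per well.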"}
{"smiles": "CCn1c(/C=C/c2cc(Br)ccc2O)nc2ccccc2c1=O", "activity, negative = inhibition": "inactive: -2.96%"}
{"smiles": "Cn1cc([N+](=O)[O-])c(C(=O)Nc2ccc3nc(-c4ccccc4)[nH]c3c2)n1", "activity, negative = inhibition": "inactive: 12%"}
{"smiles": "Cc1cc(Nc2cccc([N+](=O)[O-])c2)n2c(nc3ccccc32)c1C#N", "Potency": "active: 5.17 µM"}
{"smiles": "Cc1ccnc(NC(=S)N2CCN(c3cccc(C(F)(F)F)c3)CC2)c1", "activity, negative = inhibition": "inactive: -15.1%"}
{"smiles": "C=C(C)c1cccc(C(C)(C)NC(=O)Nc2nnc(C(C)C)s2)c1", "activity, negative = inhibition": "inactive: -6.15%"}
{"smiles": "CCc1nc2ccc(C(=O)NCc3cccs3)cn2c1N(CC)Cc1cccc(Br)c1", "Potency": "inconclusive [inhibitor, single point]"}
{"smiles": "COc1cc(OC)c(OC)cc1CNc1cc(C)ccc1OC", "activity, negative = inhibition": "inactive: -16.9%"}
{"smiles": "NNC(=O)c1[nH]c2ccc([N+](=O)[O-])cc2c1-c1ccccc1", "Potency": "inconclusive [inhibitor, single point]"}
{"smiles": "CC(C)C(=O)N1CCN(c2ccc(NC(=O)c3ccc([N+](=O)[O-])o3)cc2Cl)CC1", "Potency": "inconclusive [inhibitor, single point]"}
{"smiles": "Fc1ccc(CN2CCN(C(=S)NCCc3ccccc3)CC2)c(Cl)c1", "Potency": "inconclusive [inhibitor, single point]"}
{"smiles": "CCCCN(C(=O)c1cccc2c(=O)c(C)c(-c3ccccc3)oc12)c1ccccc1", "Potency": "inconclusive [inhibitor, single point]"}
{"smiles": "CC(=O)c1cccc(NC(=O)/C=C/c2ccc([N+](=O)[O-])s2)c1", "Potency": "active: 2.06 µM"}
{"smiles": "CCCOc1ccccc1C1CC(=O)Nc2cc3c(cc21)OCO3", "note": "(stereo unspecified)", "Potency": "active: 13 µM"}
{"smiles": "CN(C)c1ncnc2c1nnn2C1OC(CO)C(O)C1O", "note": "(stereo unspecified)", "Potency": "inconclusive [inhibitor, partial curve]"}
{"smiles": "O=S(=O)(c1ccc2nc(SCc3ccc(Cl)cc3)[nH]c2c1)N1CCOCC1", "Potency": "inconclusive [inhibitor, single point]"}
{"smiles": "COc1ccc(CCNC(=O)CNS(=O)(=O)c2ccc(Cl)cc2)cc1", "activity, negative = inhibition": "inactive: 1.96%"}
{"smiles": "CC(C)(C)c1nnc(NC(=O)CCS(=O)(=O)c2ccccc2)s1", "Potency": "inconclusive [inhibitor, single point]"}
{"smiles": "CCSc1ccccc1C(=O)n1nnc2ccccc21", "Potency": "inconclusive [inhibitor, single point]"}
{"smiles": "CN(C)C(=O)c1ccc(-c2cc3onc(-c4ccccc4)c3c(=O)n2C)cc1", "activity, negative = inhibition": "inactive: -6.87%"}
{"smiles": "Cc1ccc(NC(=O)c2ccccc2NS(=O)(=O)c2ccc(Cl)s2)cc1S(=O)(=O)N1CCOCC1", "Potency": "active: 8.2 µM"}
{"smiles": "Cn1cnc([N+](=O)[O-])c1Sc1nc(N)nc2c1ncn2C1CC(O)C(CO)O1", "note": "(stereo unspecified)", "activity, negative = inhibition": "inactive: 18.8%"}
{"smiles": "CS/C(=N\\S(=O)(=O)c1cccs1)Nc1ccc(F)c(Cl)c1", "activity, negative = inhibition": "inactive: -18.5%"}
{"smiles": "O=C(CSc1nnc(CCc2ccccc2)n1-c1ccc(Cl)cc1)NCc1ccccc1", "Potency": "inconclusive [inhibitor, single point]"}
{"smiles": "c1ccc(-c2nc3nonc3nc2-c2ccccc2)cc1", "Potency": "inconclusive [inhibitor, partial curve, poor fit]"}
{"smiles": "CC(C)CCNC(=O)C(c1ccco1)N(Cc1cccs1)C(=O)Cn1nnc2ccccc21", "note": "(stereo unspecified)", "Potency": "inconclusive [inhibitor, single point]"}
{"smiles": "CCN(CC)S(=O)(=O)c1cccc(C(=O)N[C@H](C(=O)Nc2nc3ccc(F)cc3s2)C(C)C)c1", "Potency": "inconclusive [inhibitor, single point]"}
{"smiles": "CC(C)(C)CN1CCN(Cc2nc(-c3ccc(F)cc3)cs2)CC1CCO", "note": "(stereo unspecified)", "activity, negative = inhibition": "inactive: -10.2%"}
{"smiles": "O=Cc1cn(CC(=O)Nc2ccc3c(c2)OCO3)c2ccccc12", "activity, negative = inhibition": "inactive: 15.2%"}
{"smiles": "O=S(Cc1ccc(Br)cc1)Cc1nnc(SCc2c(F)cccc2Cl)n1-c1ccccc1", "note": "(stereo unspecified)", "Potency": "active: 14.6 µM"}
{"smiles": "Cc1cccc(COCC(Cc2ccccc2)N2CCN(C(=O)c3cc(Cl)cc(Cl)c3)CCC2=O)c1", "note": "(stereo unspecified)", "Potency": "active: 13 µM"}
{"smiles": "Cn1c(=O)n(C)c2cc(S(=O)(=O)N3CCCc4ccccc43)ccc21", "activity, negative = inhibition": "inactive: 1.1%"}
{"smiles": "Cc1ccc(OCCCC(=O)Nc2ccc(Cl)c(S(=O)(=O)N3CCOCC3)c2)cc1", "activity, negative = inhibition": "inactive: 3.03%"}
{"smiles": "CCOc1ccc(CCN2C(=S)N([C@@H](CC(C)C)CN3CCC[C@@H]3CN3C(=S)NC[C@@H]3Cc3ccccc3)C[C@@H]2Cc2ccc(O)cc2)cc1", "Potency": "inconclusive [inhibitor, partial curve]"}
{"smiles": "COc1ccccc1/C=C/C(=O)N1CCc2cc(OC)c(OC)cc2C1C", "note": "(stereo unspecified)", "activity, negative = inhibition": "inactive: -23.6%"}
{"smiles": "CC[C@@H]1C(c2ccccc2)=NN(c2ccccc2)[C@H]1C(=O)N1CCOC1=O", "activity, negative = inhibition": "inactive: -2.43%"}
{"smiles": "CC(=O)Nc1ccc(C(=O)CSc2ncn(-c3ccccc3)n2)cc1", "activity, negative = inhibition": "inactive: 3.19%"}
{"smiles": "NC(c1csc(NC(=O)Nc2cccc(Cl)c2)n1)c1ccccc1Cl", "note": "(stereo unspecified)", "Potency": "inconclusive [inhibitor, single point]"}
{"smiles": "CN(CCOc1ccccc1)C(=O)C1CCN(C(=O)c2ccc(F)cc2)CC1", "activity, negative = inhibition": "inactive: -3.5%"}
{"smiles": "CC(C)C[C@H]1CNC(=S)N1C[C@H]1CCCN1C[C@H](Cc1ccc(O)cc1)N1C[C@H](Cc2ccccc2)N(CC2CCCCCC2)C1=S", "Potency": "inconclusive [inhibitor, partial curve, poor fit]"}
{"smiles": "O=C(Nc1ccc(N2CCCCC2)c(S(=O)(=O)Nc2ccccc2Cl)c1)c1cccnc1", "Potency": "inconclusive [inhibitor, single point]"}
{"smiles": "COc1cc2c(cc1OC)C(C)N(C(=O)c1cc(C)on1)CC2", "note": "(stereo unspecified)", "Potency": "inconclusive [inhibitor, partial curve, poor fit]"}
{"smiles": "Cc1ccc(-c2nc3ccc(Br)cn3c2Cc2cccc(F)c2)cc1", "Potency": "inconclusive [inhibitor, single point]"}
{"smiles": "COc1ccc(Nc2nnc(-c3ccc(C)cc3)c3ccccc23)cc1C(=O)N1CCCCC1", "Potency": "inconclusive [inhibitor, single point]"}
{"smiles": "O=C1C(Nc2ccccc2)=C/C(=N/S(=O)(=O)c2cccs2)c2ccccc21", "Potency": "active: 3.26 µM"}
{"smiles": "COc1ccc(Cl)cc1NC(=O)CSc1nnc(Cc2ccc(C)cc2)c(=O)[nH]1", "activity, negative = inhibition": "inactive: -29.9%"}
{"smiles": "O=C(C[C@H]1C/C=C\\CC[C@H](Cc2ccc(F)cc2)C(=O)O[C@@H](c2ccccc2)CNC1=O)N[C@@H](CO)Cc1ccccc1", "Potency": "active: 13 µM"}
